# Results: publication PMC7894572 (Chemmedchem, 2020)
# Marks after values point to notes of the source that are not given here.
# Conditions: 100 μM, enzyme assay buffer
row,SMILES,Solubility under the conditions used in the assay
1,"C[C@H](c1cccc2ccccc12)N1Cc2cccc(F)c2C1 [Compound 14 b, 4‐Fluor‐2‐[(1R)‐1‐naphth‐1‐ylethyl]‐2,3‐dihydro‐1H‐isoindol chloride]",n.d. (insoluble)^[d]
2,"C[C@H](c1cccc2ccccc12)N1Cc2cccc(Cl)c2C1 [Compound 14 g, 4‐Chlor‐2‐[(1R)‐1‐naphth‐1‐ylethyl]‐2,3‐dihydro‐1H‐isoindol]",n.d. (insoluble)^[d]
